# Source: the antibiotic and cytotoxicity screens of Wong et al. (2023)
# This is one part of the list.
# Test system: HepG2
# Assay: cytotoxicity call (relative viability < 0.9)
# Details: 10 µM
row,Structure (SMILES),cytotoxicity call
1,C[C@@H]1CCCCO[C@H](CN(C)Cc2ccccc2)[C@H](C)CN([C@H](C)CO)C(=O)c2cc(NC(=O)CCC(F)(F)F)ccc2O1,inactive
2,C[C@H]1CN([C@@H](C)CO)C(=O)c2cc(NS(=O)(=O)c3ccc(Cl)cc3)ccc2O[C@H]1CN(C)S(=O)(=O)c1cn(C)cn1,inactive
3,CNC(=O)N1CCN(Cc2cnn(C)c2)C[C@]2(CCCC(=O)N2)C1,inactive
4,CNC(=O)C[C@@H]1CC[C@H]2[C@@H](COC[C@@H](O)CN2C(=O)c2ccccn2)O1,inactive
5,C[C@@H]1CN([C@H](C)CO)C(=O)CCCn2cc(nn2)CO[C@@H]1CN(C)S(=O)(=O)c1ccc2ccccc2c1,inactive
6,COC(=O)CCCCCCC(=O)N/N=C/[C@H](O)[C@@H](O)[C@@H](O)[C@H](O)C(=O)O,inactive
7,C[C@H](CO)N1C[C@H](C)[C@H](CN(C)Cc2ccc(Oc3ccccc3)cc2)Oc2c(NS(=O)(=O)c3ccc(F)cc3)cccc2C1=O,inactive
8,O=c1c(-c2ccc(O)cc2)coc2cc(O)ccc12,inactive
9,C[C@@H]1CCCCO[C@H](CN(C)Cc2ccncc2)[C@H](C)CN([C@@H](C)CO)C(=O)c2cc(NC(=O)NC3CCCCC3)ccc2O1,active
10,CO[C@@H](CN(C)C(=O)c1ccccc1F)[C@@H](C)CN([C@@H](C)CO)S(=O)(=O)c1ccc(Cl)cc1,inactive
11,CC[C@@H]1OC[C@@H]2CN(C(=O)CN(C)C)CC[C@H]21,inactive
12,COc1ccc(S(=O)(=O)Nc2ccc3c(c2)C(=O)N([C@H](C)CO)C[C@H](C)[C@H](CN(C)C(=O)Nc2cccc4ccccc24)O3)cc1,inactive
13,CO[C@@H]1CN(C)C(=O)c2cc(NC(=O)Nc3c(C)noc3C)ccc2OC[C@@H](C)N(C(=O)Nc2cccc(Cl)c2)C[C@H]1C,inactive
14,C[C@@H]1CN([C@H](C)CO)C(=O)c2cc(C#CC3(O)CCCC3)cnc2O[C@@H]1CN(C)C(=O)Cc1ccccc1,inactive
15,CO[C@H]1CN(C)C(=O)c2ccc(NC(=O)C3CC3)cc2OC[C@@H](C)N(C(=O)C2CCOCC2)C[C@@H]1C,inactive
16,CCNC(=O)[C@@H]1N[C@@H]2c3ccc(-c4cccc(C(=O)N(C)C)c4)c(=O)n3C[C@@H]2[C@H]1CO,inactive
17,C[C@H](CO)N1C[C@H](C)[C@H](CN(C)S(=O)(=O)c2ccc(F)cc2)Oc2cc(C#Cc3ccncc3)ccc2S1(=O)=O,active
18,COc1ccc(NC(=O)Nc2ccc3c(c2)C(=O)N([C@H](C)CO)C[C@@H](C)[C@@H](CN(C)Cc2ccc(C(=O)O)cc2)OCCCC[C@@H](C)O3)cc1,inactive
19,COc1ccc(NC(=O)N(C)C[C@H]2Oc3ncc(C#C[C@@H](C)O)cc3C(=O)N([C@H](C)CO)C[C@H]2C)cc1,inactive
20,CCn1c2c(c3cc(C4CCCCC4)ccc31)CCC/C2=N\O,inactive
21,CN1CCN(C(=O)C[C@H]2CC[C@@H]3[C@@H](COc4ccc(NC(=O)C5CCOCC5)cc4C(=O)N3C)O2)CC1,inactive
22,Cc1noc(C)c1S(=O)(=O)Nc1ccc2c(c1)C(=O)N([C@H](C)CO)C[C@H](C)[C@H](CN(C)Cc1ccc(-c3ccccc3)cc1)O2,inactive

# Test system: S. aureus RN4220
# Assay: growth inhibition call (relative growth <= 0.2)
# Details: 50 µM
row,Structure (SMILES),growth inhibition call
1,CN1CCN(C(=O)[C@@H]2[C@@H](CO)[C@@H]3Cn4c(ccc(C5=CCCC5)c4=O)[C@H]2N3S(C)(=O)=O)CC1,inactive
2,C[C@@H]1CN([C@H](C)CO)C(=O)Cc2cc(NC(=O)Nc3ccc4c(c3)OCO4)ccc2O[C@@H]1CN(C)Cc1ccc(C(F)(F)F)cc1,inactive
3,C[C@@H]1CN([C@@H](C)CO)C(=O)c2ccccc2-c2ccccc2CO[C@@H]1CN(C)C(=O)N[C@H](C)c1ccccc1,inactive
4,O=C1C=CC(=O)N1,active
5,O=C(C[C@@H]1CC=CC[C@H](NC(=O)OCC2c3ccccc3-c3ccccc32)C(=O)O[C@H](c2ccccc2)CNC1=O)N[C@@H](CO)Cc1ccccc1,inactive
6,COc1ccc(CN(C)C[C@H]2Oc3ccc(NS(=O)(=O)c4cn(C)cn4)cc3CC(=O)N([C@H](C)CO)C[C@H]2C)cc1,inactive
7,COc1ccccc1-c1cnc2c(c1)C(=O)N([C@H](C)CO)C[C@H](C)[C@@H](CN(C)C(=O)c1cccnc1)O2,inactive
8,C[C@H]1CN([C@@H](C)CO)C(=O)Cc2cc(NC(=O)CCC(F)(F)F)ccc2O[C@@H]1CN(C)Cc1ccc(Oc2ccccc2)cc1,inactive
9,CC(C)NC(=O)Nc1ccc2c(c1)C(=O)N([C@H](C)CO)C[C@H](C)[C@@H](CN(C)S(=O)(=O)c1cn(C)cn1)OCCCC[C@@H](C)O2,inactive
10,CC(C)CC#Cc1cnc2c(c1)C(=O)N([C@H](C)CO)C[C@@H](C)[C@@H](CN(C)S(=O)(=O)c1ccccc1)O2,inactive
11,C[C@@H]1CCCCO[C@H](CN(C)CC2CCCCC2)[C@H](C)CN([C@H](C)CO)C(=O)c2cc(NS(=O)(=O)c3ccc(Cl)cc3)ccc2O1,inactive
12,C[C@@H]1CN([C@@H](C)CO)C(=O)c2cc(NC(=O)Cc3ccccc3)ccc2O[C@@H](C)CCCCO[C@@H]1CN(C)C(=O)Nc1ccc2c(c1)OCO2,inactive
13,C[C@@H]1CCCCO[C@@H](CN(C)C(=O)Nc2ccccc2)[C@H](C)CN([C@@H](C)CO)C(=O)c2cc(NC(=O)C3CCCCC3)ccc2O1,inactive
14,C[C@H](CO)N1C[C@H](C)[C@@H](CN(C)S(=O)(=O)c2ccc(Oc3ccccc3)cc2)OCc2cnnn2CCCC1=O,inactive
15,C[C@H]1CN([C@@H](C)CO)C(=O)c2cc(C#CC3(O)CCCC3)cnc2O[C@H]1CN(C)S(=O)(=O)c1ccc(F)cc1,inactive
16,C[C@H](CO)N1C[C@H](C)[C@@H](CN(C)C(=O)Nc2cccc(Oc3ccccn3)c2)OCc2cn(nn2)CCCC1=O,inactive
17,C[C@@H]1CN([C@@H](C)CO)C(=O)c2cc(NC(=O)Nc3ccc(F)cc3)ccc2O[C@@H]1CN(C)Cc1ccc(Cl)c(Cl)c1,inactive
18,C[C@H](CO)N1C[C@H](C)[C@H](CN(C)C(=O)CCCN(C)C)OCCCC[C@H](C)Oc2ccc(NC(=O)Nc3ccc(F)cc3)cc2C1=O,inactive
19,C[C@@H]1CCCCO[C@H](CN(C)Cc2ccccc2)[C@H](C)CN([C@H](C)CO)C(=O)c2cc(NC(=O)CCC(F)(F)F)ccc2O1,inactive
20,C[C@H]1CN([C@@H](C)CO)C(=O)c2cc(NS(=O)(=O)c3ccc(Cl)cc3)ccc2O[C@H]1CN(C)S(=O)(=O)c1cn(C)cn1,inactive

row,Structure (SMILES),growth inhibition call
1,CNC(=O)N1CCN(Cc2cnn(C)c2)C[C@]2(CCCC(=O)N2)C1,inactive
2,CNC(=O)C[C@@H]1CC[C@H]2[C@@H](COC[C@@H](O)CN2C(=O)c2ccccn2)O1,inactive
3,C[C@@H]1CN([C@H](C)CO)C(=O)CCCn2cc(nn2)CO[C@@H]1CN(C)S(=O)(=O)c1ccc2ccccc2c1,inactive
4,COC(=O)CCCCCCC(=O)N/N=C/[C@H](O)[C@@H](O)[C@@H](O)[C@H](O)C(=O)O,inactive
5,C[C@H](CO)N1C[C@H](C)[C@H](CN(C)Cc2ccc(Oc3ccccc3)cc2)Oc2c(NS(=O)(=O)c3ccc(F)cc3)cccc2C1=O,inactive
6,O=c1c(-c2ccc(O)cc2)coc2cc(O)ccc12,inactive
7,C[C@@H]1CCCCO[C@H](CN(C)Cc2ccncc2)[C@H](C)CN([C@@H](C)CO)C(=O)c2cc(NC(=O)NC3CCCCC3)ccc2O1,inactive
8,CO[C@@H](CN(C)C(=O)c1ccccc1F)[C@@H](C)CN([C@@H](C)CO)S(=O)(=O)c1ccc(Cl)cc1,inactive
9,CC[C@@H]1OC[C@@H]2CN(C(=O)CN(C)C)CC[C@H]21,inactive
10,COc1ccc(S(=O)(=O)Nc2ccc3c(c2)C(=O)N([C@H](C)CO)C[C@H](C)[C@H](CN(C)C(=O)Nc2cccc4ccccc24)O3)cc1,inactive
11,CO[C@@H]1CN(C)C(=O)c2cc(NC(=O)Nc3c(C)noc3C)ccc2OC[C@@H](C)N(C(=O)Nc2cccc(Cl)c2)C[C@H]1C,inactive
12,C[C@@H]1CN([C@H](C)CO)C(=O)c2cc(C#CC3(O)CCCC3)cnc2O[C@@H]1CN(C)C(=O)Cc1ccccc1,inactive
13,CO[C@H]1CN(C)C(=O)c2ccc(NC(=O)C3CC3)cc2OC[C@@H](C)N(C(=O)C2CCOCC2)C[C@@H]1C,inactive
14,CCNC(=O)[C@@H]1N[C@@H]2c3ccc(-c4cccc(C(=O)N(C)C)c4)c(=O)n3C[C@@H]2[C@H]1CO,inactive
15,C[C@H](CO)N1C[C@H](C)[C@H](CN(C)S(=O)(=O)c2ccc(F)cc2)Oc2cc(C#Cc3ccncc3)ccc2S1(=O)=O,inactive
16,COc1ccc(NC(=O)Nc2ccc3c(c2)C(=O)N([C@H](C)CO)C[C@@H](C)[C@@H](CN(C)Cc2ccc(C(=O)O)cc2)OCCCC[C@@H](C)O3)cc1,inactive
17,COc1ccc(NC(=O)N(C)C[C@H]2Oc3ncc(C#C[C@@H](C)O)cc3C(=O)N([C@H](C)CO)C[C@H]2C)cc1,inactive
18,CCn1c2c(c3cc(C4CCCCC4)ccc31)CCC/C2=N\O,inactive
19,CN1CCN(C(=O)C[C@H]2CC[C@@H]3[C@@H](COc4ccc(NC(=O)C5CCOCC5)cc4C(=O)N3C)O2)CC1,inactive
20,Cc1noc(C)c1S(=O)(=O)Nc1ccc2c(c1)C(=O)N([C@H](C)CO)C[C@H](C)[C@H](CN(C)Cc1ccc(-c3ccccc3)cc1)O2,inactive
